From the supplement of paper PMC12217912
Some of the results follow. The full chains were built here from the parent and the listed change. Inactive controls read about 0.05.

B1: TEV protease; numbered along this chain (parent)
chain: MGESLFKGPRDYNPISSSICHLTNESDGHTTSLYGIGFGPFIITNKHLFRRNNGTLVVQSLHGVFKVKDTTTLQQHLVDGRDMIIIRMPKDFPPFPQKLKFREPQREERICLVTTNFQTKSMSSMVSDTSCTFPSGDGIFWKHWIQTKDGQCGSPLVSTRDGFIVGIHSASNFTNTNNYFTSVPKNFMELLTNQEAQQWVSGWRLNADSVLWGGHKVFMVKPEEPFQPVKEATQL

Variants of: B1
Assay: raw area under fraction-flipped curve 0-4 h after induction (AUC4h, not background-subtracted), DNA-recorder readout of cleavage of the substrate (dimensionless); higher = more cleavage of the substrate by the protease variant
Conditions: temperature: 34 °C; time window: 0-4 h after rhamnose induction
Procedure: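 In vivo DNA recorder in E. coli TOP10(DE3) ΔrhaA at 34 °C. Each TEVp single-site mutant (parent TEVp 0) is paired with a single-site variant of the 7-mer TEVs (canonical ENLYFQ|S). The substrate sits between flexible linkers in a Bxb1-sfGFP-TEVs-SsrA fusion, so cleavage stabilises Bxb1 and speeds flipping of a recombination array, read by NGS. The value is the raw area under the fraction-flipped curve over 0-4 h after rhamnose induction (AUC4h), with ≥20 reads per time point. It is not background-subtracted; inactive controls average about 0.047.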
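Also: Bxb1 expression induced with 0.2% (w/v) L-rhamnose at OD600 near 0.5, cultures sampled hourly, flipped fraction per protease–substrate barcode pair counted by paired-end Illumina sequencing.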

| Variant | area with substrate ENLYAQS | area with substrate ENLYCQS | area with substrate ENLYDQS | area with substrate ENLYEQS | area with substrate ENLYGQS | area with substrate ENLYHQS | area with substrate ENLYIQS | area with substrate ENLYKQS | area with substrate ENLYMQS | area with substrate ENLYNQS | area with substrate ENLYPQS | area with substrate ENLYQQS | area with substrate ENLYRQS | area with substrate ENLYSQS | area with substrate ENLYVQS | area with substrate ENLYWQS | area with substrate ENLYYQS | area with substrate ENLYTQS | area with substrate ENLYLQS |
| --- | --- | --- | --- | --- | --- | --- | --- | --- | --- | --- | --- | --- | --- | --- | --- | --- | --- | --- | --- |
| MGELLFKGPRDYNPISSSICHLTNESDGHTTSLYGIGFGPFIITNKHLFRRNNGTLVVQSLHGVFKVKDTTTLQQHLVDGRDMIIIRMPKDFPPFPQKLKFREPQREERICLVTTNFQTKSMSSMVSDTSCTFPSGDGIFWKHWIQTKDGQCGSPLVSTRDGFIVGIHSASNFTNTNNYFTSVPKNFMELLTNQEAQQWVSGWRLNADSVLWGGHKVFMVKPEEPFQPVKEATQL [S4L] | 0.071 | 0.0654 | 0.0563 | 0.0667 | 0.0653 | 0.058 | 0.0905 | 0.0471 | 0.0682 | 0.0654 | 0.0611 | 0.024 | 0.0631 | 0.0678 | 0.079 | 0.0799 | 0.0678 |  |  |
| MGESDFKGPRDYNPISSSICHLTNESDGHTTSLYGIGFGPFIITNKHLFRRNNGTLVVQSLHGVFKVKDTTTLQQHLVDGRDMIIIRMPKDFPPFPQKLKFREPQREERICLVTTNFQTKSMSSMVSDTSCTFPSGDGIFWKHWIQTKDGQCGSPLVSTRDGFIVGIHSASNFTNTNNYFTSVPKNFMELLTNQEAQQWVSGWRLNADSVLWGGHKVFMVKPEEPFQPVKEATQL [L5D] | 0.0199 |  |  | 0.0729 | 0.0684 |  |  | 0.071 | 0.0988 | 0.0598 | 0.0662 | 0.0753 | 0.0524 | 0.0758 |  | 0.0651 | 0.0632 |  |  |
| MGESLFKGQRDYNPISSSICHLTNESDGHTTSLYGIGFGPFIITNKHLFRRNNGTLVVQSLHGVFKVKDTTTLQQHLVDGRDMIIIRMPKDFPPFPQKLKFREPQREERICLVTTNFQTKSMSSMVSDTSCTFPSGDGIFWKHWIQTKDGQCGSPLVSTRDGFIVGIHSASNFTNTNNYFTSVPKNFMELLTNQEAQQWVSGWRLNADSVLWGGHKVFMVKPEEPFQPVKEATQL [P9Q] | 0.0923 | 0.109 | 0.0572 | 0.0781 | 0.0668 | 0.0592 |  | 0.0696 |  | 0.0594 |  |  | 0.0423 |  | 0.122 | 0.0912 | 0.0317 | 0.0784 |  |
| MGESLFKGPREYNPISSSICHLTNESDGHTTSLYGIGFGPFIITNKHLFRRNNGTLVVQSLHGVFKVKDTTTLQQHLVDGRDMIIIRMPKDFPPFPQKLKFREPQREERICLVTTNFQTKSMSSMVSDTSCTFPSGDGIFWKHWIQTKDGQCGSPLVSTRDGFIVGIHSASNFTNTNNYFTSVPKNFMELLTNQEAQQWVSGWRLNADSVLWGGHKVFMVKPEEPFQPVKEATQL [D11E] | 0.0583 | 0.0776 | 0.0649 | 0.0661 | 0.0781 | 0.0599 | 0.125 | 0.0613 | 0.0601 | 0.048 | 0.0686 |  | 0.0497 |  | 0.11 | 0.111 | 0.0655 | 0.0755 | 0.0801 |
| MGESLFKGPRDYQPISSSICHLTNESDGHTTSLYGIGFGPFIITNKHLFRRNNGTLVVQSLHGVFKVKDTTTLQQHLVDGRDMIIIRMPKDFPPFPQKLKFREPQREERICLVTTNFQTKSMSSMVSDTSCTFPSGDGIFWKHWIQTKDGQCGSPLVSTRDGFIVGIHSASNFTNTNNYFTSVPKNFMELLTNQEAQQWVSGWRLNADSVLWGGHKVFMVKPEEPFQPVKEATQL [N13Q] | 0.0683 |  | 0.0655 | 0.0665 | 0.068 | 0.0691 | 0.124 | 0.073 | 0.0864 | 0.0685 | 0.0691 | 0.0606 | 0.0623 | 0.0786 | 0.112 | 0.084 | 0.0539 | 0.0789 | 0.0783 |
| MGESLFKGPRDYNPIKSSICHLTNESDGHTTSLYGIGFGPFIITNKHLFRRNNGTLVVQSLHGVFKVKDTTTLQQHLVDGRDMIIIRMPKDFPPFPQKLKFREPQREERICLVTTNFQTKSMSSMVSDTSCTFPSGDGIFWKHWIQTKDGQCGSPLVSTRDGFIVGIHSASNFTNTNNYFTSVPKNFMELLTNQEAQQWVSGWRLNADSVLWGGHKVFMVKPEEPFQPVKEATQL [S16K] | 0.111 |  | 0.0671 | 0.0727 | 0.0601 | 0.0839 | 0.148 | 0.0475 | 0.101 | 0.0683 |  | 0.048 | 0.0562 | 0.067 | 0.148 | 0.0969 |  |  |  |
| MGESLFKGPRDYNPISSMICHLTNESDGHTTSLYGIGFGPFIITNKHLFRRNNGTLVVQSLHGVFKVKDTTTLQQHLVDGRDMIIIRMPKDFPPFPQKLKFREPQREERICLVTTNFQTKSMSSMVSDTSCTFPSGDGIFWKHWIQTKDGQCGSPLVSTRDGFIVGIHSASNFTNTNNYFTSVPKNFMELLTNQEAQQWVSGWRLNADSVLWGGHKVFMVKPEEPFQPVKEATQL [S18M] | 0.0776 |  | 0.0595 | 0.0695 |  |  | 0.108 | 0.0605 | 0.0673 | 0.0785 | 0.0783 |  | 0.0593 |  |  | 0.0803 | 0.058 | 0.0839 |  |
| MGESLFKGPRDYNPISSTICHLTNESDGHTTSLYGIGFGPFIITNKHLFRRNNGTLVVQSLHGVFKVKDTTTLQQHLVDGRDMIIIRMPKDFPPFPQKLKFREPQREERICLVTTNFQTKSMSSMVSDTSCTFPSGDGIFWKHWIQTKDGQCGSPLVSTRDGFIVGIHSASNFTNTNNYFTSVPKNFMELLTNQEAQQWVSGWRLNADSVLWGGHKVFMVKPEEPFQPVKEATQL [S18T] | 0.0936 | 0.0997 | 0.0475 | 0.0593 |  | 0.0719 | 0.161 | 0.0622 | 0.0814 | 0.048 |  | 0.0668 |  | 0.0445 | 0.152 | 0.0778 | 0.066 |  |  |
| MGESLFKGPRDYNPISSSICELTNESDGHTTSLYGIGFGPFIITNKHLFRRNNGTLVVQSLHGVFKVKDTTTLQQHLVDGRDMIIIRMPKDFPPFPQKLKFREPQREERICLVTTNFQTKSMSSMVSDTSCTFPSGDGIFWKHWIQTKDGQCGSPLVSTRDGFIVGIHSASNFTNTNNYFTSVPKNFMELLTNQEAQQWVSGWRLNADSVLWGGHKVFMVKPEEPFQPVKEATQL [H21E] | 0.0816 | 0.0938 | 0.0696 | 0.0434 | 0.0673 | 0.0645 | 0.0906 | 0.0461 | 0.0744 | 0.0595 | 0.0634 | 0.0591 | 0.0688 | 0.0599 | 0.0672 | 0.0917 | 0.0651 | 0.064 | 0.0716 |
